Results on 153 variants are retold here after a collection of fitness landscapes (doi:10.1126/science.1257360).

First the molecules themselves.
B1: PhoQ; a variant is named by its letters at X, in order, P23837 (parent)
chain: MKKLLRLFFPLSLRVRFLLATAAVVLVLSLAYGMVALIGYSVSFDKTTFRLLRGESNLFYTLAKWENNKLHVELPENIDKQSPTMTLIYDENGQLLWAQRDVPWLMKMIQPDWLKSNGFHEIEADVNDTSLLLSGDHSIQQQLQEVREDDDDAEMTHSVAVNVYPATSRMPKLTIVVVDTIPVELKSSYMVWSWFIYVLSANLLLVIPLLWVAAWWSLRPIEALAKEVRELEEHNRELLNPATTRELTSLVRNLNRLLKSERERYDKYRTTLTDLTHSLKTPLXXLQXXLRSLRSEKMSVSDAEPVMLEQISRISQQIGYYLHRASMRGGTLLSRELHPVAPLLDNLTSALNKVYQRKGVNISLDISPEISFVGEQNDFVEVMGNVLDNACKYCLEFVEISARQTDEHLYIVVEDDGPGIPLSKREVIFDRGQRVDTLRPGQGVGLAVAREITEQYEGKIVAGESMLGGARMEVIFGRQHSAPKDE

The list shows a part of the results.

In this experiment the parent is B1. The experiment in a line: enrichment ratio after two sorts for PhoP signalling (ratio (wild type AVST 3.29)); higher = more functional. Conditions: with PhoP (E. coli).
Take TCKH: the enrichment ratio is no more than 0.25.
As for NKSD, the enrichment ratio was no more than 0.25.
For the variant SLVL, the enrichment ratio worked out at 1.22.
In the case of FYYH it was no more than 0.25; in that of SFMV, no more than 0.25.
Turning to DVTQ, the enrichment ratio was no more than 0.25.
As to WNIS, the enrichment ratio was no more than 0.25.
As to ANND, the enrichment ratio is no more than 0.25.
In the case of TCLG it was 0.681.
As for IPTW, the enrichment ratio is no more than 0.25.
As for PWWF, the enrichment ratio is no more than 0.25.
In the case of ELFA it was no more than 0.25.
Consider AVYI, for which the enrichment ratio is no more than 0.25.
Turning to NYLK, the enrichment ratio is no more than 0.25.
Regarding AKCN, the enrichment ratio was found to be 5.46.
For the variant GPAL, the enrichment ratio was no more than 0.25.
In the case of PFLH it was no more than 0.25; in that of SKKF, no more than 0.25.
In the case of FIQG it was no more than 0.25; in that of ANYL, 0.346.
In the case of ESFT it was no more than 0.25; in that of VCDR, no more than 0.25.
As to KPSW, the enrichment ratio is no more than 0.25.
In the case of EIVH, the enrichment ratio is no more than 0.25.
Take TDLC: the enrichment ratio came to 11.7.
In the case of GQSK it was no more than 0.25.
In the case of MFMV, the enrichment ratio was no more than 0.25.
On to VHFE, for which the enrichment ratio was no more than 0.25.
On to ACEP, for which the enrichment ratio is no more than 0.25.
As to AVMI, the enrichment ratio stood at 15.6.
On to WVPA, for which the enrichment ratio is no more than 0.25.
For the variant LNWK, the enrichment ratio is no more than 0.25.
In the case of FRHH it was no more than 0.25; in that of LCCP, no more than 0.25.
As for KDIM, the enrichment ratio was no more than 0.25.
Consider NHQK, for which the enrichment ratio was no more than 0.25.
As to YLPW, the enrichment ratio is no more than 0.25.
Consider PFWF, for which the enrichment ratio is no more than 0.25.
Regarding AFNT, the enrichment ratio is no more than 0.25.
As to WSRS, the enrichment ratio was no more than 0.25.
In the case of TWCP it was no more than 0.25; in that of TGGA, 9.44.
Take SQLA: the enrichment ratio was found to be 11.7.
For FMDK, the enrichment ratio was no more than 0.25.
As for MPKH, the enrichment ratio was no more than 0.25.
YQSC: the enrichment ratio is no more than 0.25.
For the variant FHEK, the enrichment ratio was no more than 0.25.
As for HPDE, the enrichment ratio was no more than 0.25.
For the variant FANL, the enrichment ratio was no more than 0.25.
In the case of NEAI, the enrichment ratio was no more than 0.25.
As for YVMC, the enrichment ratio was 0.38.
Consider PTMN, for which the enrichment ratio was no more than 0.25.
Regarding YYMH, the enrichment ratio was no more than 0.25.
Turning to KCDI, the enrichment ratio was no more than 0.25.
Take DLVD: the enrichment ratio was no more than 0.25.
Take TTYR: the enrichment ratio was no more than 0.25.
Regarding RGVF, the enrichment ratio was no more than 0.25.
MGCF: the enrichment ratio amounted to 0.253.
As to GDYR, the enrichment ratio was no more than 0.25.
With VYPL, the enrichment ratio is no more than 0.25.
In the case of NGHG, the enrichment ratio was no more than 0.25.
As for RAYV, the enrichment ratio was no more than 0.25.
For YSGG, the enrichment ratio was no more than 0.25.
Consider TRKH, for which the enrichment ratio was no more than 0.25.
In the case of TAKM, the enrichment ratio is no more than 0.25.
Consider DPQE, for which the enrichment ratio was no more than 0.25.
In the case of TKWY, the enrichment ratio was found to be 12.9.
In the case of WKWH it was no more than 0.25; in that of TWPQ, no more than 0.25.
As for KSKL, the enrichment ratio was no more than 0.25.
Regarding FAGC, the enrichment ratio is no more than 0.25.
In the case of VWAS, the enrichment ratio is no more than 0.25.
In the case of RNRS, the enrichment ratio was no more than 0.25.
In the case of KKNI it was no more than 0.25; in that of PRNM, no more than 0.25; in that of NAYP, no more than 0.25.
Consider LMKA, for which the enrichment ratio was no more than 0.25.
As for VRRY, the enrichment ratio was no more than 0.25.
In the case of FADN, the enrichment ratio is no more than 0.25.
As for EMFC, the enrichment ratio is no more than 0.25.
TIQK: the enrichment ratio worked out at 5.16.
In the case of VYLT it was no more than 0.25; in that of FCSE, no more than 0.25; in that of HWCV, no more than 0.25.
Turning to FINS, the enrichment ratio was no more than 0.25.
As for MDIP, the enrichment ratio was no more than 0.25.
As to LWIH, the enrichment ratio is no more than 0.25.
Regarding ACWP, the enrichment ratio was no more than 0.25.
In the case of TQHL it was 7.82; in that of FEYW, no more than 0.25; in that of VPQF, no more than 0.25.
As for VFSN, the enrichment ratio was no more than 0.25.
In the case of GFTN, the enrichment ratio was no more than 0.25.
As for FAVY, the enrichment ratio is no more than 0.25.
As to WDTC, the enrichment ratio was no more than 0.25.
As for HMYH, the enrichment ratio was no more than 0.25.
As for LWQN, the enrichment ratio was no more than 0.25.
As for VSAS, the enrichment ratio is no more than 0.25.
Regarding DGCK, the enrichment ratio is no more than 0.25.
In the case of QAIR, the enrichment ratio was no more than 0.25.
In the case of PFIC it was no more than 0.25; in that of NVRE, no more than 0.25; in that of FQYE, no more than 0.25.
Turning to DYGN, the enrichment ratio is no more than 0.25.
In the case of SKVK it was no more than 0.25; in that of HIIP, no more than 0.25.
As for IDDQ, the enrichment ratio is no more than 0.25.
As for LRVY, the enrichment ratio is no more than 0.25.
In the case of FWKR it was no more than 0.25.
With DRVY, the enrichment ratio was no more than 0.25.
In the case of WNAF it was no more than 0.25; in that of LTMN, no more than 0.25.
Regarding IAPE, the enrichment ratio was no more than 0.25.
With VHEV, the enrichment ratio is no more than 0.25.
In the case of NVFL it was no more than 0.25; in that of LKQW, no more than 0.25; in that of KYFS, no more than 0.25.
Consider HVRH, for which the enrichment ratio was no more than 0.25.
In the case of LMQT it was no more than 0.25; in that of YFEC, no more than 0.25; in that of QSYE, 1.41.
For EWFR, the enrichment ratio is no more than 0.25.
Turning to EKHS, the enrichment ratio was no more than 0.25.
In the case of SCNH it was 3.51; in that of GECQ, 17.
Consider GNAY, for which the enrichment ratio was no more than 0.25.
Take DYSV: the enrichment ratio is no more than 0.25.
As to TYVW, the enrichment ratio is no more than 0.25.
In the case of NMVG it was no more than 0.25; in that of PSNW, no more than 0.25.
Take FDDT: the enrichment ratio was no more than 0.25.
In the case of AGCS it was 10.8; in that of DLHP, no more than 0.25; in that of TDCQ, 20.3.
Consider WYHY, for which the enrichment ratio was 0.671.
Turning to KFDP, the enrichment ratio was no more than 0.25.
In the case of PPIH it was no more than 0.25; in that of RVWI, no more than 0.25; in that of YRNV, no more than 0.25.
For IGIG, the enrichment ratio is no more than 0.25.
Consider HDIH, for which the enrichment ratio is no more than 0.25.
As for MDNI, the enrichment ratio is no more than 0.25.
In the case of GWTD it was no more than 0.25; in that of RALQ, no more than 0.25.
Turning to MRYK, the enrichment ratio is no more than 0.25.
In the case of MITH it was no more than 0.25; in that of FTIA, no more than 0.25; in that of TVKH, no more than 0.25.
As for SRFP, the enrichment ratio is no more than 0.25.
In the case of IGSA it was no more than 0.25.
Turning to STWF, the enrichment ratio is no more than 0.25.
On to CISQ, for which the enrichment ratio was 55.8.
Turning to WDMR, the enrichment ratio is no more than 0.25.
